Measurements as given in PMC4336329 (PLoS ONE, 2015).
Among all 310,000 compounds or so, about 14,000 (4.5%) showed an effect of 50% or more. The effect is printed as a negative number. Some of the results follow.
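Also: peak tail current of the secondary pulse compared with the same well before compound.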

The compounds below were run against human ether-à-go-go-related gene (hERG) potassium channel (human, UniProt Q12809) (assay: primary screen, population patch clamp on CHO cells stably expressing hERG).
Chain of human ether-à-go-go-related gene (hERG) potassium channel (Q12809 whole entry, looked up): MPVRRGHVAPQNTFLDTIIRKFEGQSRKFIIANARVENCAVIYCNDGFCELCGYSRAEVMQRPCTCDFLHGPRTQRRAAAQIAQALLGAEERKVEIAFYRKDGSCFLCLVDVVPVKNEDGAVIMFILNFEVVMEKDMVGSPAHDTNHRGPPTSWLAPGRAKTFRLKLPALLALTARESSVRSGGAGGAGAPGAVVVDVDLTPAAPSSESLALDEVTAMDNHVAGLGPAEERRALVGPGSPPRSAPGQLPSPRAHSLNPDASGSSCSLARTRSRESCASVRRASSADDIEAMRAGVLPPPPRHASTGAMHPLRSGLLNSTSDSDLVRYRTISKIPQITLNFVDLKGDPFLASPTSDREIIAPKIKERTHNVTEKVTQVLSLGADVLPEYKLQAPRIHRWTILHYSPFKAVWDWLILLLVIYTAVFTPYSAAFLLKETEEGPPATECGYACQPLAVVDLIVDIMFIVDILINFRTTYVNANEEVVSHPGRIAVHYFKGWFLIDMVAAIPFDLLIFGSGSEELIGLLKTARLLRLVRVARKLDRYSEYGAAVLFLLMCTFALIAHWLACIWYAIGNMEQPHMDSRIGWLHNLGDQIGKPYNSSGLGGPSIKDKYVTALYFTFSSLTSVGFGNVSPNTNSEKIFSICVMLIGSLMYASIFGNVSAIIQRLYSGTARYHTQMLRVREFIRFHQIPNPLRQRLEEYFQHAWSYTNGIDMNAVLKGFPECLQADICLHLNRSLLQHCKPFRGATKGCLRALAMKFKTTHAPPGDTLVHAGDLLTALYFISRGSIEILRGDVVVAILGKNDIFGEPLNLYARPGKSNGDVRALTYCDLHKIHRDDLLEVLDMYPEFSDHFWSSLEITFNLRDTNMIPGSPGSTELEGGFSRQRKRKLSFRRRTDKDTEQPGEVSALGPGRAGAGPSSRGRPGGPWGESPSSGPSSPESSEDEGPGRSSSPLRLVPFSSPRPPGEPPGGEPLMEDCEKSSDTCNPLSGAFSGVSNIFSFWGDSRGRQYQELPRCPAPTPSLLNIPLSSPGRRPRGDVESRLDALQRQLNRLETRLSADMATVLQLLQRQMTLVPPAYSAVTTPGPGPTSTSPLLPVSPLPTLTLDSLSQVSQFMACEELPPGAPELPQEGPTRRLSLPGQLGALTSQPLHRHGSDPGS
With COc1ccc2[nH]cc(C(=O)CN3CCCCC3)c2c1 the “hERG current change (%, negative = inhibition) at 10uM” value was -8.72%. For COc1ccc(Br)cc1/C=N/NC(=O)c1ccc(OC)c(OC)c1, the “hERG current change (%, negative = inhibition) at 10uM” value was 13.8%. With Cc1cc(C)c(NS(=O)(=O)c2ccc3c(c2)NC(=O)CC(=O)N3)c(C)c1 the “hERG current change (%, negative = inhibition) at 10uM” value was 4.76%. With CSCCC(=O)N(C)CC1CCN(CCc2cccc(C(F)(F)F)c2)CC1 the “hERG current change (%, negative = inhibition) at 10uM” value was -64.3%. With Cc1cccc(C)c1OCC(=O)N/N=C/c1cccnc1 the “hERG current change (%, negative = inhibition) at 10uM” value was -5.76%. With C=CCn1c(N)c(C(=O)NCC2CCCO2)c2nc3ccccc3nc21 (centres unmarked) the “hERG current change (%, negative = inhibition) at 10uM” value was -15.4%. For COc1ccc(-c2nn(-c3ccccc3)cc2C(=O)Nc2nccs2)cc1OC, the “hERG current change (%, negative = inhibition) at 10uM” value was -7.37%. In the case of COc1ccc(C(=S)N2CCOCC2)cc1OC(=O)c1cc(OC)c(OC)c(OC)c1, the “hERG current change (%, negative = inhibition) at 10uM” value was 16.2%. For Cc1noc(C)c1COC(=O)c1ccccc1Oc1ccccc1, the “hERG current change (%, negative = inhibition) at 10uM” value was -2.58%. With CCCCC(=O)O[C@H]1CC[C@H]2[C@@H]3CCc4cc(O)ccc4[C@H]3CC[C@]12C the “hERG current change (%, negative = inhibition) at 10uM” value was -4.31%. With CCN(C(=O)COC(=O)c1cc(=O)[nH]c2ccccc12)C1CCS(=O)(=O)C1 (centres unmarked) the “hERG current change (%, negative = inhibition) at 10uM” value was 15%. With CSc1nc(N)nc(C(C)C)n1 the “hERG current change (%, negative = inhibition) at 10uM” value was -5.59%. In the case of Cc1[nH]nc(N2CCCCCC2)c1[N+](=O)[O-], the “hERG current change (%, negative = inhibition) at 10uM” value was 6.22%. O=C(COc1ccc(C(=S)N2CCOCC2)cc1)N1CCOCC1 was tested, and the “hERG current change (%, negative = inhibition) at 10uM” value was 21.7%. For C=CCC1C=CCC(CC=C)N1C(=O)c1ccccc1[N+](=O)[O-] (centres unmarked), the “hERG current change (%, negative = inhibition) at 10uM” value was -3.17%. In the case of COc1ccc2c(c1)oc(=O)c1cc(OC)ccc12, the “hERG current change (%, negative = inhibition) at 10uM” value was 16.5%. In the case of COc1cc(/C=N/Nc2ccc(C(F)(F)F)cn2)ccc1O, the “hERG current change (%, negative = inhibition) at 10uM” value was -5.96%. In the case of CCC(NC(=O)Nc1nnc(C(F)(F)F)s1)(C(F)(F)F)C(F)(F)F, the “hERG current change (%, negative = inhibition) at 10uM” value was -25.5%. With CC(C)(C)C1(C)OC(C(=O)NC2CCCCC2)C(C(=O)NC2CCCCC2)O1 (centres unmarked) the “hERG current change (%, negative = inhibition) at 10uM” value was -11.7%. With O=C(NCc1ccccc1)N1CCC(CO)(Cc2cccc(F)c2)CC1 the “hERG current change (%, negative = inhibition) at 10uM” value was -12.8%. With CC1CCN(C(C(=O)O)c2ccccc2)CC1.Cl (centres unmarked) the “hERG current change (%, negative = inhibition) at 10uM” value was 15.8%. In the case of O=C(NCc1ccc(F)cc1)c1cc(C(=O)C2CC2)c[nH]1, the “hERG current change (%, negative = inhibition) at 10uM” value was -5.23%. With N/C(=N/[N+](=O)[O-])N1CCN(C(=O)c2ccc(Cl)cc2)CC1 the “hERG current change (%, negative = inhibition) at 10uM” value was 8.11%. COc1ccccc1NC(=O)CC1C(=O)NCCN1C(=O)Nc1ccc(Cl)c(Cl)c1 (centres unmarked) was tested, and the “hERG current change (%, negative = inhibition) at 10uM” value was 0.288%. With O=C(OCc1c(Cl)nc2sccn12)c1cc2c(s1)CCCC2 the “hERG current change (%, negative = inhibition) at 10uM” value was 6.63%. O=C(Nc1ccc2c(c1)OCO2)C1CCN(C(=O)CSc2ncnc3ccccc23)CC1 was tested, and the “hERG current change (%, negative = inhibition) at 10uM” value was -18.3%. Cc1cccc(C)c1NC(=O)N1CCN(c2nc3ccccc3s2)CC1 was tested, and the “hERG current change (%, negative = inhibition) at 10uM” value was 6.3%. For CCOC(=O)c1cnc(SCc2nc(N)nc(Nc3ccc(F)cc3)n2)nc1N, the “hERG current change (%, negative = inhibition) at 10uM” value was -1.09%. Cc1ccc(/C=C(/C#N)C(=O)NC(C)c2ccccc2)o1 (centres unmarked) was tested, and the “hERG current change (%, negative = inhibition) at 10uM” value was 3.51%. CCOC(=O)Cc1cc(=O)[nH]c(Nc2nc3ccccc3o2)n1 was tested, and the “hERG current change (%, negative = inhibition) at 10uM” value was -1.53%. In the case of Cc1ccc(C)c(S(=O)(=O)Nc2ccccc2C(=O)Nc2cc(C)on2)c1, the “hERG current change (%, negative = inhibition) at 10uM” value was 1.84%. With CCC(C)NC(=O)c1cn(CCOC)c(=O)c2c1c1ccccc1n2C (centres unmarked) the “hERG current change (%, negative = inhibition) at 10uM” value was 20.4%. For Cc1ccc(NC(NC(=O)c2ccccc2[N+](=O)[O-])C(Cl)(Cl)Cl)cc1 (centres unmarked), the “hERG current change (%, negative = inhibition) at 10uM” value was -5.27%. For Cc1c(C(c2ccc(F)cc2)c2c(O)c3ccccc3oc2=O)c(=O)n(-c2ccccc2)n1C (centres unmarked), the “hERG current change (%, negative = inhibition) at 10uM” value was -20.9%. For COc1ccc(-c2csc3ncnc(N4CCN(CCO)CC4)c23)cc1, the “hERG current change (%, negative = inhibition) at 10uM” value was -1.12%. In the case of Cl.O=C1C2CCCC1C(N1CCCCC1)CC2 (centres unmarked), the “hERG current change (%, negative = inhibition) at 10uM” value was 7.25%. With O=C(Nc1ccc(F)cc1F)c1c(C(F)(F)F)ccnc1Oc1cccc(C(F)(F)F)c1 the “hERG current change (%, negative = inhibition) at 10uM” value was 9.41%. Cc1cccc(OCC(=O)Nc2ccc(NC(=O)c3ccco3)c(C)c2)c1 was tested, and the “hERG current change (%, negative = inhibition) at 10uM” value was -15.3%. In the case of Cc1cc(C)c(NC(=O)CSCc2c(C)noc2C)c(C)c1, the “hERG current change (%, negative = inhibition) at 10uM” value was 5.86%. With CCOC(=O)N1CCN(C(=O)c2ccc(Cl)c(NC(=O)c3cccs3)c2)CC1 the “hERG current change (%, negative = inhibition) at 10uM” value was -54.7%. With COc1ccc(N2C(N)=C(C#N)C(c3cccnc3)C3=C2CC(C)(C)CC3=O)cc1 (centres unmarked) the “hERG current change (%, negative = inhibition) at 10uM” value was -17.4%. In the case of Cc1ccc(-c2nnc(SCc3ccc(C#N)cc3)n2Cc2ccco2)cc1, the “hERG current change (%, negative = inhibition) at 10uM” value was -20.6%. With COc1ccccc1/C=C/C(=C1/C(=O)N(c2ccccc2)N=C1C)c1ccc(C)cc1 the “hERG current change (%, negative = inhibition) at 10uM” value was 1.24%. COc1ccc(NC(=O)C2CCCNC2)cc1OCC(C)C (centres unmarked) was tested, and the “hERG current change (%, negative = inhibition) at 10uM” value was -1.49%. With CN(CCCNC(=O)CSc1cc(=O)n(C)c2ccc(Cl)cc12)Cc1ccccc1 the “hERG current change (%, negative = inhibition) at 10uM” value was -61.2%. For Cc1cc(N2C(=O)C(=O)/C(=C(/O)c3ccccc3)C2c2cccs2)no1 (centres unmarked), the “hERG current change (%, negative = inhibition) at 10uM” value was 4.54%. With COC(=O)c1ccc2[nH]c(CO)c(-c3ccccc3)c2c1 the “hERG current change (%, negative = inhibition) at 10uM” value was 8.99%. With NS(=O)(=O)c1ccc(NC(=O)c2ccc(S(=O)(=O)N3CCc4ccccc43)cc2)cc1 the “hERG current change (%, negative = inhibition) at 10uM” value was 10.3%. For COc1cnn(-c2ccc(Br)cc2)c(=O)c1SCc1ccccc1, the “hERG current change (%, negative = inhibition) at 10uM” value was -65.6%. For CCCn1c(N)c(C(=O)CSc2nc(N)cc(=O)[nH]2)c(=O)n(C)c1=O, the “hERG current change (%, negative = inhibition) at 10uM” value was 11.4%. For CC1(C)Cc2c(cnn2-c2ccccc2)C(NC(=O)CCc2ccc(=O)[nH]n2)C1 (centres unmarked), the “hERG current change (%, negative = inhibition) at 10uM” value was -0.0884%. For COc1cc(-c2cc[n+](C)cc2)ccc1O.[Br-], the “hERG current change (%, negative = inhibition) at 10uM” value was 8.15%. Cc1cccc(NC(=O)CSc2ccc3nnc(-c4cccnc4)n3n2)c1 was tested, and the “hERG current change (%, negative = inhibition) at 10uM” value was -30.1%. With COc1ccc(CNC(=O)COC(=O)CN2C(=O)COc3ccccc32)cc1 the “hERG current change (%, negative = inhibition) at 10uM” value was -8.6%. With COCCCn1c(SCc2cc(=O)[nH]c3ccccc23)nnc1-c1ccco1 the “hERG current change (%, negative = inhibition) at 10uM” value was -0.762%. In the case of CCC(c1nnnn1C1CCCC1)N1CCN(c2cccc(OC)c2)CC1.Cl (centres unmarked), the “hERG current change (%, negative = inhibition) at 10uM” value was 1.95%.
